The text below walks through data of publication PMC4387718, “In vivo biochemical analyses reveal distinct roles of β-importins and eEF1A in tRNA subcellular traffic” (Genes & Development, 2015).

Chains of the proteins cited; added tags and fusions are not shown.
UniProt Q06142: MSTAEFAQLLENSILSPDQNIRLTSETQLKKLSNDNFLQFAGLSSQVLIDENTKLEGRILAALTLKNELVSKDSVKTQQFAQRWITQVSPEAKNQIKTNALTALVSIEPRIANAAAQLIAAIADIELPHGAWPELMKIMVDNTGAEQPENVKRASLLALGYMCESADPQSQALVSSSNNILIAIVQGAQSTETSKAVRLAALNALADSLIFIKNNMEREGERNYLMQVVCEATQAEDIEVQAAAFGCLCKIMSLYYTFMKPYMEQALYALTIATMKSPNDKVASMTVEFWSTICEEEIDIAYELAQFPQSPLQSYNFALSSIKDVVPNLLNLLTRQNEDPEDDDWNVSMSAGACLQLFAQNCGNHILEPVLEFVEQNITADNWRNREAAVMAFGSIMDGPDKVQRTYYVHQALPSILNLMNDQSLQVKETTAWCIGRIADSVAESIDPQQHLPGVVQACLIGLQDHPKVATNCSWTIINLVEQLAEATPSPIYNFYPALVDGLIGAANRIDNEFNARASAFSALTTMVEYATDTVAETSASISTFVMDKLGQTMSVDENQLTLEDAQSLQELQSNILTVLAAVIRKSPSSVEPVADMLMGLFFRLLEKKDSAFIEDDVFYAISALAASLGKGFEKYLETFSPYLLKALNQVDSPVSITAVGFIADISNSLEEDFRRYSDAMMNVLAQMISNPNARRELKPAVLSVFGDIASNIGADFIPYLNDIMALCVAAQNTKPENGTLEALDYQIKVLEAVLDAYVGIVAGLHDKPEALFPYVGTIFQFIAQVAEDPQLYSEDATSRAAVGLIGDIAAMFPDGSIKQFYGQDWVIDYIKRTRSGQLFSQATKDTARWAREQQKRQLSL

No constants are given. Whether binding was seen depends on the method and setting. In cells and extracts the contact can be indirect. Some entries that bind do so weakly or less than the wild type. For some assays here: Sequences can lack the tags named with a protein.

Test [1] has as its target ZZ (protein A)-tagged Kap95 (S. cerevisiae) (UniProt Q06142). Kind of test: co-IP; cells with RanGTP-locked mutant, without formaldehyde cross-linking, mock treatment; IgG beads; Western blot with anti-eEF1A. (A western blot detects proteins with antibodies after separation by electrophoresis.)
Test [2] addresses T1, MORF (His6-HA epitope-ZZ protein A)-tagged Msn5 (S. cerevisiae) (UniProt P52918).
T1 sequence: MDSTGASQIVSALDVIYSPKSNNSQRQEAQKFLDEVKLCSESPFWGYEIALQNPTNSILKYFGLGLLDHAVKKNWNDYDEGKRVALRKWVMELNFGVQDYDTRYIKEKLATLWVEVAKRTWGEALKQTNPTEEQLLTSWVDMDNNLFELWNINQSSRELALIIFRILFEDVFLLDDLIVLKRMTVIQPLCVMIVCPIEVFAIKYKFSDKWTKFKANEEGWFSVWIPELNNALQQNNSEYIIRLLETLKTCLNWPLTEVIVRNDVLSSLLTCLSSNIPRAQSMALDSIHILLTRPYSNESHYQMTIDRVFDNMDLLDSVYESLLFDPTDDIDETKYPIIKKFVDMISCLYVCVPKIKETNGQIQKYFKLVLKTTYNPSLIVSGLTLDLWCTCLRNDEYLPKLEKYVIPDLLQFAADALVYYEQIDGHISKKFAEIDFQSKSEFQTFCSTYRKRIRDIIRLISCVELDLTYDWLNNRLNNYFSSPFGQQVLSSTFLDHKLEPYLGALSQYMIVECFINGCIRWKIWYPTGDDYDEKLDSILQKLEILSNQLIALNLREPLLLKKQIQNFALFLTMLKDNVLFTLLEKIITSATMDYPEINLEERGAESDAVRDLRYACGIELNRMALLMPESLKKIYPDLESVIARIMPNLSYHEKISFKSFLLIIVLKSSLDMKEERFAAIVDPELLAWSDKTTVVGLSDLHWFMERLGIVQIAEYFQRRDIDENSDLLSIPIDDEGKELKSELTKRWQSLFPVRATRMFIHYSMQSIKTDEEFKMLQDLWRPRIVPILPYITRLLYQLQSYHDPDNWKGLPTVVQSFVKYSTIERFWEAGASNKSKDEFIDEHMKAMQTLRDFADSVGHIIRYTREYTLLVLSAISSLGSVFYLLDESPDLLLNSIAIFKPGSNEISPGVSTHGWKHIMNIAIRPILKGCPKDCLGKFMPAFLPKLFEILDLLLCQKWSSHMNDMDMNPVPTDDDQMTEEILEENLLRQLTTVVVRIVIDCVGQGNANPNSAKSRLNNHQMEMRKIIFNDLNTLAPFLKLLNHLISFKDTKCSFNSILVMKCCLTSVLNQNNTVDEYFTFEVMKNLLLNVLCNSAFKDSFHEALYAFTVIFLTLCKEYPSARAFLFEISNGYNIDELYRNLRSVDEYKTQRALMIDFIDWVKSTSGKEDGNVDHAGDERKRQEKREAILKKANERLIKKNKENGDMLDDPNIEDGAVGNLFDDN
The description is as above.

In test [3] the target is T1, MORF (His6-HA epitope-ZZ protein A)-tagged Msn5 (S. cerevisiae). Description: condition: only in cells with the RanGDP-locked mutant instead of the RanGTP-locked mutant; co-IP; cells with RanGDP-locked Gsp1-T24N induced 1 h with galactose; formaldehyde cross-linking; tagged beta-importin precipitated from the soluble extract with IgG-conjugated magnetic beads, 30 min at 4°C; Western blot or Sypro Ruby staining.

Test [4] concerns the target ZZ (protein A)-tagged Kap95 (S. cerevisiae) (UniProt Q06142). Description: co-IP; cells with RanGTP-locked Gsp1-G21V induced 1 h with galactose; formaldehyde cross-linking; tagged beta-importin precipitated from the soluble extract with IgG-conjugated magnetic beads, 30 min at 4°C; Western blot; also cells in medium with or without amino acids for 1.5 h.
In test [5] the target is T2, MORF (His6-HA epitope-ZZ protein A)-tagged Los1 (S. cerevisiae) (UniProt P33418).
T2 sequence: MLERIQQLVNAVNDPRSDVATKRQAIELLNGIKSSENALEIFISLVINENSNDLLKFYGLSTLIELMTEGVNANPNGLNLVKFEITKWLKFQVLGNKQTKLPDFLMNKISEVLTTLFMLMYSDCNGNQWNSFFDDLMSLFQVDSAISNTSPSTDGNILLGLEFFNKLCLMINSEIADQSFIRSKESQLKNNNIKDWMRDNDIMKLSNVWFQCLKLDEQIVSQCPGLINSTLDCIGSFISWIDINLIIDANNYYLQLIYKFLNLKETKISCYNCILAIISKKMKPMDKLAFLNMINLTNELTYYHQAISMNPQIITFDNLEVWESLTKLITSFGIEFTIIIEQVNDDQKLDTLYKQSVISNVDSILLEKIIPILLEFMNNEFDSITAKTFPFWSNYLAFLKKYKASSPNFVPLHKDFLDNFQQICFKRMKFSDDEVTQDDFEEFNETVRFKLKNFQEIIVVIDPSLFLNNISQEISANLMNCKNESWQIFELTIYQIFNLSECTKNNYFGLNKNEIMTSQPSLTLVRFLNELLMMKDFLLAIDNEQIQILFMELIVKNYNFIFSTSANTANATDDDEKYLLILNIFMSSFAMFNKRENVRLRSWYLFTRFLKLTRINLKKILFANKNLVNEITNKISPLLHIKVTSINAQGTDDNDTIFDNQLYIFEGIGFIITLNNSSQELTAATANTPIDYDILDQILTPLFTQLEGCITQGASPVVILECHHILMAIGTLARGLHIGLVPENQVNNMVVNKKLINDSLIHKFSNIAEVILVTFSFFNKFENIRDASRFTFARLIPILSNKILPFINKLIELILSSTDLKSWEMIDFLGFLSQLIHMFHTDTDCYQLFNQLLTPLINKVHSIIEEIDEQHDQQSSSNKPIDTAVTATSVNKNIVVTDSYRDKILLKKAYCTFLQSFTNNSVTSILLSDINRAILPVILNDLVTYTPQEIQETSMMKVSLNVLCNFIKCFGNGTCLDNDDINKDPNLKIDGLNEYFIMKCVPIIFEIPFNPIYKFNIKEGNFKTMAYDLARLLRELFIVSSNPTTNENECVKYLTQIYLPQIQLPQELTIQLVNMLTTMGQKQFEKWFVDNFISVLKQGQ
Described as above.

The target in test [6] is T1, MORF (His6-HA epitope-ZZ protein A)-tagged Msn5 (S. cerevisiae). Described as above.
Test [7] deals with ZZ (protein A)-tagged Kap95 (S. cerevisiae) (UniProt Q06142). Description: co-IP; cells with locked RanGTP, formaldehyde cross-linked; extract treated with RNase A prior to purification of the beta-importin on IgG beads; Western blot with anti-eEF1A.

B1: endogenously 3Myc-tagged Tef1 (natural protein, S. cerevisiae, UniProt P02994 1-458, looked up)
chain: MGKEKSHINVVVIGHVDSGKSTTTGHLIYKCGGIDKRTIEKFEKEAAELGKGSFKYAWVLDKLKAERERGITIDIALWKFETPKYQVTVIDAPGHRDFIKNMITGTSQADCAILIIAGGVGEFEAGISKDGQTREHALLAFTLGVRQLIVAVNKMDSVKWDESRFQEIVKETSNFIKKVGYNPKTVPFVPISGWNGDNMIEATTNAPWYKGWEKETKAGVVKGKTLLEAIDAIEQPSRPTDKPLRLPLQDVYKIGGIGTVPVGRVETGVIKPGMVVTFAPAGVTTEVKSVEMHHEQLEQGVPGDNVGFNVKNVSVKEIRRGNVCGDAKNDPPKGCASFNATVIVLNHPGQISAGYSPVLDCHTAHIACRFDELLEKNDRRSGKKLEDHPKFLKSGDAALVKFVPSKPMCVEAFSEYPPLGRFAVRDMRQTVAVGVIKSVDKTEKAAKVTKAAQKAAKK
notes: Tef1, yeast translation elongation factor 1 alpha (eEF1A), product of TEF1; Detected with anti-eEF1A and anti-Myc; comigrates with untagged Tef2, so the anti-eEF1A signal called Tef1/2 is of both; also called Tef1-Myc; Tef1/2; source: endogenously tagged, S. cerevisiae cell extract
On to B1, for which the binding entry was “no binding” in test [1]; “binds” in test [2]; “no binding” in test [3]; “no binding” in test [4]; “no binding” in test [5]; “binds” in test [6]. For the same molecule, in test [7], the binding entry is “no binding”.

B2: untagged Tef2 (natural protein, S. cerevisiae (endogenous in yeast), UniProt P02994 1-458, looked up)
chain: B1 chain
notes: Tef2, yeast translation elongation factor 1 alpha (eEF1A), product of TEF2; Detected with anti-eEF1A; comigrates with Tef1-Myc; also called Tef1/2; eEF1A; source: endogenous, S. cerevisiae cell extract
For B2, the binding result in test [1] is on record as “no binding”; in test [2], “binds”; in test [3] it was “no binding”; in test [4] it was “no binding”; in test [5], “no binding”; in test [6], “binds”. Moreover, the binding entry in test [7] was “no binding”.
